Test results: PubChem BioAssay AID1479 (National Center for Advancing Translational Sciences (NCATS), 2009)
The campaign covered roughly 280,000 compounds. About 820 (0.29%) were called active. Inconclusive means that the source gave no clear call. Such entries were picked first, then a sample of the others. The call rests on the fitted dose curve; in most records, active means well fitted curve in either direction with a large enough effect; inconclusive means small, poorly fitted or top-dose-only effect; inactive means flat fitted curve, though single readings scatter. Potencies of inconclusive entries are left out as doubtful fits.

Assay: Total Fluorescence Counterscreen for Inhibitors of the Interaction of Thyroid Hormone Receptor and Steroid Receptor Coregulator 2
Details: TRb/SRC2 Texas Red total fluorescence interference; series mostly up to 106 µM; fluorescence change, negative = quenching: at the top concentration
How it was run: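 Human TRb ligand-binding domain at 0.6 uM with 20 nM Texas Red SRC2 peptide in Tris buffer containing 1 uM T3 and 5% DMSO, incubated with compound 5 h at ambient temperature. Total fluorescence (555/632 nm) calculated as parallel + 2 × perpendicular.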
On the % scale 0 is the no-effect control and ±100 the full control effect; potency means the concentration at half of the fitted maximal effect; tags describe the fitted curve by direction and shape or compound fluorescence and quenching.

SMILES	Potency	fluorescence change, negative = quenching
Cc1nc(N2CCCC2)c2c(C(=O)Nc3cccc(Cl)c3C)c(C)oc2n1	inconclusive [falling, full curve, poor fit]	–
COc1cccc(OC)c1C(=O)NC(=S)Nc1cc(-c2nc3ccccc3[nH]2)ccc1Cl	–	inactive: 2.4%
S=C(Nc1ccc(Cl)c(Cl)c1)NC1CCCCC1	–	inactive: 1.19%
O=C(NCCCc1nc2ccccc2n1Cc1cccc(Cl)c1)c1ccco1	inconclusive [falling, full curve, poor fit]	–
C=CCNC(=S)Nc1c(C(=O)OC)[nH]c2cc(OC)ccc12	–	inactive: -8.79%
COc1ccc(/C=N/NC(=O)c2cc(-c3ccc4c(c3)OCO4)n[nH]2)cc1OC	inconclusive [falling, full curve, poor fit]	–
CCOC(=O)c1ccc(NC(=O)c2c(NCc3cccs3)sc3c2CCCCC3)cc1	inconclusive [falling, partial curve, poor fit]	–
CCN(CC)CCNC(=O)c1sc2nc3n(c(=O)c2c1C)CCCCC3	inconclusive [falling, partial curve, poor fit]	–
COc1ccccc1CNC(=O)CSc1nnc2c(Cl)cc(C(F)(F)F)cn12	inconclusive [falling, partial curve, poor fit]	–
Cc1ccc(OCCn2cc(C(=O)C3CCCCC3)c3ccccc32)cc1	inconclusive [falling, full curve, poor fit]	–
COc1ccc(C(C(N)=O)c2ncc(C(F)(F)F)cc2Cl)cc1OC (centres undefined)	–	inactive: -1.07%
Oc1ccc2c(c1)OCC1(O)Cc3cc(O)c(O)cc3C21 (centres undefined)	inconclusive [fluorescent, full curve]	–
O=C(COc1ccccc1[N+](=O)[O-])N/N=C/c1ccc(OC(=O)c2ccco2)cc1	active: 282 µM [quencher]	–
Cn1nnnc1SCCNCc1ccccc1OCc1ccccc1F	active: 10 µM [quencher]	–
CCOc1ccccc1C(=O)NCc1nc2cccnc2n1Cc1ccc(C)cc1	inconclusive [falling, full curve, poor fit]	–
Cc1c(C(=O)N/N=C/c2cccs2)nc2ccccn12	active: 178 µM [quencher]	–
CCS(=O)(=O)N1CCN(c2ccc([N+](=O)[O-])c(NCC3CCCO3)c2)CC1 (centres undefined)	–	inactive: -1.82%
CC1=C(C#N)c2nc(N)c(C#N)c(C)c2/C1=C\c1ccc(C)cc1	–	inactive: 29.7%
O=C(CNc1ccccc1)N/N=C/c1ccc2c(c1)OCO2	inconclusive [falling, full curve, poor fit]	–
O=[N+]([O-])c1ccc(/C([O-])=C(/C(=S)NCc2ccco2)[n+]2ccccc2)cc1	inconclusive [quencher, partial curve]	–
c1coc(C2Nc3cccc4cccc(c34)N2)c1	inconclusive [quencher, partial curve]	–
CSc1nc(=O)c2c(n1C)NC(=O)CC2c1cc(F)cc(F)c1 (centres undefined)	–	inactive: -40.7%

SMILES	Potency	fluorescence change, negative = quenching
CCOc1cccc(CNc2ccc(O)cc2)c1OCc1ccc(Cl)cc1	inconclusive [fluorescent, partial curve]	–
COc1ccc(OCC(=O)NCC(c2ccc(OC)cc2)N2CCOCC2)cc1 (centres undefined)	active: 89.1 µM [quencher]	–
Cc1ccc(C)c(N2CCN(C(=O)CS(=O)(=O)c3cccc4nsnc34)CC2)c1	active: 0.0355 µM [quencher]	–
Cc1ccc2onc(CC(=O)N3CCN(c4ccccc4)CC3)c2c1	inconclusive [falling, partial curve, poor fit]	–
CCCOc1ccccc1C1C(C(=O)Nc2ccccc2)=C(C)Nc2nnnn21 (centres undefined)	active: 0.1 µM [quencher]	–
CCOC(=O)/C=c1\s/c(=C(\C#N)C(=O)OCC)n(-c2ccccc2)c1=O	inconclusive [fluorescent, partial curve]	–
CC(CNC(=O)C1CCN(C(=O)c2cc3sccc3n2C)CC1)c1ccccc1 (centres undefined)	–	inactive: 2.38%
Cc1cccc(OCC(=O)N/N=C/c2ccc(N(C)C)cc2)c1	–	inactive: -5.63%
COC(=O)c1cc2sccc2n1CC(=O)Nc1cc(Cl)ccc1OC	inconclusive [falling, full curve, poor fit]	–
CCOc1ccc(NC(=O)CCc2nnc3n(C)c(=O)c4sccc4n23)cc1	active: 0.0355 µM [quencher]	–
COc1cc(C2c3c(oc4ccccc4c3=O)C(=O)N2c2ccccn2)cc(OC)c1OC (centres undefined)	active: 0.0398 µM [quencher]	–
COc1ccc(N(Cc2cccs2)C(=O)c2ccc(OCC(C)C)cc2)cc1	inconclusive [falling, full curve, poor fit]	–
CCOc1ccc(CNc2nc3nc(C)c(Cc4ccccc4)c(=O)n3[nH]2)cc1	inconclusive [quencher, full curve]	–
O=C(C1CCN(S(=O)(=O)Cc2ccccc2)CC1)N1CCN(c2ccccc2)CC1	–	inactive: -0.606%
Cc1ccc(Cc2cnc(NC(=O)/C(C#N)=C/c3ccc(-c4cccc([N+](=O)[O-])c4)o3)s2)cc1	inconclusive [rising, single point]	–
CCCCNC(=O)CCCn1c(=O)c2ccccc2n(Cc2cccc(Cl)c2)c1=O	inconclusive [falling, full curve, poor fit]	–
CN=c1scc(C)n1/N=C/c1ccc2c(c1)OCO2	–	inactive: -3.36%
Cc1cccc(C(=O)Nc2nnc(S(=O)(=O)N(C)c3ccccc3C)s2)c1	inconclusive [falling, partial curve, poor fit]	–
COc1ccc(C(=O)COC(=O)C(Cc2c[nH]c3ccccc23)NC(=O)c2ccc(C(C)(C)C)cc2)cc1 (centres undefined)	inconclusive [falling, full curve, poor fit]	–
CC(=O)CSc1nnc2cc(C)c3cc(C)cc(C)c3n12	active: 25.1 µM [quencher]	–
NC(=O)c1c(NC(=O)CSc2nnc(-c3ccco3)n2-c2ccccc2)sc2c1CCC2	inconclusive [quencher, full curve]	–
CCCN(C(=O)c1cc2c(s1)CCC2)c1c(N)n(Cc2ccccc2)c(=O)[nH]c1=O	–	inactive: -6.89%
